# Measured values taken from the supplement of paper PMC3334620.
# The full ranking holds about 33,000 sequences; the median of “E-score (-0.5 to 0.5)” is about -0.053, and the highest 2% start at about 0.37. The list shows a part of the results.
# Target: Hap1 (UniProt P0CE41)
# Experiment: PBM E-score (8-mer binding enrichment) (E-score (-0.5 to 0.5)); higher = stronger / more preferred TF binding; most listed sequences are background and not binding sites
# Details: protein concentration: 200 nM; construct: GST-DNA-binding domain
# Outline: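 Each ungapped eight-base word and its reverse complement, pooled, received an E-score from the Universal PBM Analysis Suite. Underlying scans, normalised with masliner, recorded fluorescent anti-GST bound to GST-tagged yeast transcription factors. These were applied at about 100-200 nM to universal all-10-mer Agilent arrays double-stranded by primer extension.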
# UniProt P0CE41, sequence (P0CE41 whole entry): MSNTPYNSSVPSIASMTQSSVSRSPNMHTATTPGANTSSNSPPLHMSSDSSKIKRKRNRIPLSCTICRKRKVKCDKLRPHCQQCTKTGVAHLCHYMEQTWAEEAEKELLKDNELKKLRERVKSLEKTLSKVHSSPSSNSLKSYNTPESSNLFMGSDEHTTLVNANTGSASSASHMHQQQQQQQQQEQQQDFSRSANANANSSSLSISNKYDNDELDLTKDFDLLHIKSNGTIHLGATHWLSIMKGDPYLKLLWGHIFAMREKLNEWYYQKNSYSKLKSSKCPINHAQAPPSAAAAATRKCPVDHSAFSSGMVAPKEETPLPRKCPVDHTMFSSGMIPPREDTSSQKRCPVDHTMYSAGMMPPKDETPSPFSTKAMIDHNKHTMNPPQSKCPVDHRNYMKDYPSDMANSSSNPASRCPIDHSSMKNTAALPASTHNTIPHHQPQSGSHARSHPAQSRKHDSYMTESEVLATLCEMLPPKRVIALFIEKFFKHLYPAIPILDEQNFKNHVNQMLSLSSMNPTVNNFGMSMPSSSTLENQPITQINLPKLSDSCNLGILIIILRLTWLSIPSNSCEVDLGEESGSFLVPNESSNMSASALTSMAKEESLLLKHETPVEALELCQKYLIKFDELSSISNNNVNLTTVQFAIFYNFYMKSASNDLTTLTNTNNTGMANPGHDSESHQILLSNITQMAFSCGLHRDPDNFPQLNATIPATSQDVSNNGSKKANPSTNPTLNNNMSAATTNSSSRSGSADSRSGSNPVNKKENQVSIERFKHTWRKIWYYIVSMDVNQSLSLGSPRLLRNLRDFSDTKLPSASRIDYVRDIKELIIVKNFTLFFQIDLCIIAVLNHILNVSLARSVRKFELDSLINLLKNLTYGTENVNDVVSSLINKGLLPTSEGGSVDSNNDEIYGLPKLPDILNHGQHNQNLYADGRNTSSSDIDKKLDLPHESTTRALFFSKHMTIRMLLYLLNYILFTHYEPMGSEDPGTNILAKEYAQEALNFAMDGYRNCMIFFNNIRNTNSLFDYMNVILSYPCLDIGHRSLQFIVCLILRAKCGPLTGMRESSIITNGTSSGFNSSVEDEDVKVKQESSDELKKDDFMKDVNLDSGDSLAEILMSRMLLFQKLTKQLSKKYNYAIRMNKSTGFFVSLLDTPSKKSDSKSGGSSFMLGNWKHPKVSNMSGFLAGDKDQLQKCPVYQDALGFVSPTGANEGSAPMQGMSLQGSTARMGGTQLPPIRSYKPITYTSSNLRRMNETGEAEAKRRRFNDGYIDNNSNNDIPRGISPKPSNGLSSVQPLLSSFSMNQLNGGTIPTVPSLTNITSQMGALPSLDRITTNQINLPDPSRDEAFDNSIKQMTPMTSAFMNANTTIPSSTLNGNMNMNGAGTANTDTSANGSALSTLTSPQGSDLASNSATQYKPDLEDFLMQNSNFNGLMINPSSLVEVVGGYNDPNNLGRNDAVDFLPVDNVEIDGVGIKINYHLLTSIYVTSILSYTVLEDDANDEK
row,Sequence,PBM E-score
1,ACGGGTTC,0.0166
2,ACCCTAAT,-0.35
3,GGCTCTAC,0.0591
4,TAAGACAA,0.0754
5,CCGCCGCA,0.135
6,CTCTCATC,-0.159
7,CCCGGATA,0.325
8,CGTCCACA,-0.0864
9,CGGATCAA,0.35
10,CGGACACC,0.218
11,AGCGGAGC,0.223
12,GGGCGTTA,0.147
13,GTCCGACA,0.38
14,TAGTCTGA,-0.183
15,ATGATTTA,-0.1
16,ACACCGAC,0.268
17,GGCAAATA,0.2
18,CATCGGGA,0.223
19,CAGGAGGG,-0.258
20,GTCCCATA,-0.186
21,GAATTAGC,0.099
22,GAGATCAC,-0.0988

row,Sequence,PBM E-score
1,AGAAGTAC,-0.253
2,AAAGTAAT,0.0112
3,AACACACA,-0.289
4,TGCGCAAA,0.0697
5,TCACAGCA,-0.165
6,GTCGTGAA,-0.157
7,TGCCAGCA,-0.12
8,GCGGTACC,0.161
9,CTTGTTCA,-0.121
10,ATAACGAA,0.0537
11,CCGTACGG,0.0145
12,AAAGTATA,-0.0298
13,ACAGTGGG,-0.082
14,ACCTCCGC,0.248
15,CAGACCAA,-0.137
16,CAAGGTTA,-0.0309
17,AATAATTG,-0.0996
18,CAAGCACA,-0.332
19,AGCGACCG,0.0527
20,AACGGCGG,0.294
21,CAACAGGG,-0.0727
22,TAAGAATA,-0.141

row,Sequence,PBM E-score
1,ATGCGTCG,-0.0779
2,AGAATAAA,-0.0166
3,ACAGAGTG,-0.218
4,AATGATAT,-0.0455
5,GTGCCTAA,-0.21
6,GACGGCTA,-0.0322
7,AGGGACAT,-0.0657
8,GCAATAGC,0.0973
9,CGCAATGA,-0.103
10,ATCAGTAA,-0.0379
11,GGTCGACC,0.348
12,CTTCTTCA,-0.292
13,CATGCCCG,0.242
14,GCAAAATA,-0.0583
15,AACGGCCC,0.15
16,CTAATGAC,-0.301
17,CCAGAAAA,-0.159
18,CCGTGGTA,-0.0122
19,CATCATAA,-0.067
20,CCGATAGA,0.405
21,CCTTTAGA,-0.213
22,CAACAACG,-0.209

row,Sequence,PBM E-score
1,CAGTAAAA,-0.088
2,ATCGTGAA,-0.0494
3,ACGGTATC,0.113
4,ATTCATAA,-0.0791
5,CCGCACAG,0.118
6,CGGCAAGC,0.152
7,CCCTGGCG,-0.132
8,CTCGTGCC,-0.0817
9,AGGCAATG,-0.17
10,CCATGACA,-0.186
11,CTGCTGGA,-0.231
12,ATAAACTC,0.134
13,ACCTATTA,-0.146
14,ACAAGCCA,-0.195
15,CAGTATCG,0.115
16,CGACATTC,-0.0511
17,AGAGTACT,-0.169
18,AGGGTGAG,-0.217
19,CAACTTGG,-0.0913
20,AGGGTGAC,-0.116
21,GACCTTAA,-0.0906
22,CTATATCC,0.202

row,Sequence,PBM E-score
1,ATATCCTC,0.0211
2,AACTATCT,-0.0682
3,GAGGTACA,-0.101
4,AAGGGGTC,-0.31
5,GCAGACGC,-0.0992
6,CTCGTCGA,-0.251
7,GCCTCCCC,-0.0953
8,AACTGAAT,-0.215
9,GTAATCAA,-0.0734
10,CTATTCGC,0.0149
11,AGTCCTGC,-0.128
12,CTGAGCAC,-0.14
13,CCCCCTGC,-0.157
14,AATCAATT,0.102
15,AGGATACC,0.0145
16,AGGCACTA,-0.11
17,AGCTAGCG,0.0898
18,ATACGTCC,0.272
19,AGTTTAGA,0.0957
20,AAACACGT,-0.132
21,AGGTGGAA,0.0549
